Out of some 150,000 compounds screened, about 540 (0.36%) showed an effect of 50% or more. Some of the results follow.

The text below walks through data of ChEMBL document CHEMBL4888484, “Replenishing the malaria drug discovery pipeline: Screening and hit evaluation of the MMV Hit Generation Library 1 (HGL1) against asexual blood stage Plasmodium falciparum ,using a nano luciferase reporter read-out” (2022).

For this assay, the system named is Plasmodium falciparum. In words: Primary screen in NF54 nanoGlo assay, in single point, at 2uM, 72h; a lower Z score goes with more inhibition. It is filed as functional, Erythrocyte. The note with it: timepoint 72 hour.
Consider `COc1cccc(C(=O)N2CCN(C(=O)Nc3ccncc3C)CC2)c1`, for which the “% Inhibition” value is reported as 2% and the Z score is given as -0.16.
Regarding `O=C(Nc1nncs1)c1ccccc1Nc1cccc(C(F)(F)F)c1`, the “% Inhibition” value is recorded as -5% and the Z score is reported as 0.51.
On the same counts, the results for `C=CCNC(=NC1CCOCC1)NCCc1ccccc1OCC` are -19% and 1.94.
Taken in the same sequence, the figures for `C[C@H](NC(=O)c1ccsc1)c1nnc2n1CCCCC2` were -8% and 1.18.
`C[C@@H](C1CC1)N(C)c1ncnc2ccsc12`: the “% Inhibition” value was 6% and the Z score is -0.72.
Taken in the same sequence, the figures for `Cc1cc(OC2CCN(C(=O)Cn3cnc4ccccc43)CC2)nc(C)n1` were 0% and -0.01.
On the same counts, the results for `CC(C)[C@H](NC(=O)c1nc(=O)[nH][nH]1)c1ccccc1Cl` are -2% and 0.29.
`CC(C)N(CC(F)(F)F)C(=O)CNc1cc(CO)ccc1Cl`: the “% Inhibition” value is on record as -9% and the Z score amounted to 1.31.
Consider `Cc1ncnc(NCCCc2csc(N)n2)c1C`, for which the “% Inhibition” value is 2% and the Z score is recorded as -0.17.
Taken in the same sequence, the figures for `Cc1cc(C)c(C(=O)N2CCCCCCC2)c(=O)[nH]1` were 2% and -0.36.
As to `COC(=O)NC(=C(c1nc2ccccc2s1)c1nc2ccccc2s1)C(F)(F)F`, the “% Inhibition” value is listed as 20% and the Z score was -2.54.
For `CCCc1n[nH]cc1C(=O)N1CCC[C@H]1c1nc(-c2ccccc2)no1`, the “% Inhibition” value was -16% and the Z score turned out to be 2.05.
On to `CC1(C)[C@@H](NS(=O)(=O)N2CCOCC2)[C@@H]1c1ccccc1`, for which the “% Inhibition” value is -9% and the Z score came to 1.14.
As to `Cc1ccc(Nc2nc(N)nc(-c3ccsc3)n2)cc1`, the “% Inhibition” value is -15% and the Z score came to 2.22.
Taken in the same sequence, the figures for `O=C(O)Cc1coc(NC(=O)c2ccc(Br)cc2)n1` were -15% and 2.93.
For the molecule `O=C(Nc1ccccc1OCCc1ccccn1)N1CCCCCC1`, the “% Inhibition” value is recorded as -16% and the Z score is 3.
Take `COc1cccc(C(=O)N2CC[C@]3(OC)CC[C@H](OC)C[C@H]23)c1OC`: the “% Inhibition” value came out at 0% and the Z score was 0.06.
On the same counts, the results for `COc1ccc(-c2n[nH]c(C3CC3)c2NC(=O)C2CCC2)cc1OC` are -10% and 0.94.
`c1cncc(Cn2ncc3[nH]c(-c4ccc(CN5CCCCC5)s4)nc32)c1`: the “% Inhibition” value is on record as -11% and the Z score is 1.55.
On the same counts, the results for `c1cc2c(cc1CNC[C@H]1CN(C3CC3)CCO1)CCO2` are -11% and 1.45.
Taken in the same sequence, the figures for `Cc1ccc(C(=O)N2CCN(CC(=O)Nc3c(C)cccc3C)CC2)cc1NC(=O)c1ccco1` were 10% and -1.2.
As for `CN(C)CC[C@H]1CCCCN1C(=O)c1ccnn1C(F)F`, the “% Inhibition” value is -17% and the Z score stood at 1.83.
With `Cc1ccc(C2CC2C(=O)N2CCCC2c2ccncc2)cc1C` (stereo not drawn), the “% Inhibition” value is -13% and the Z score is on record as 1.31.
As for `CNC(=O)CN1CCN(Cc2ccc(Cl)cc2F)CC1=O`, the “% Inhibition” value is listed as -18% and the Z score came out at 1.86.

In general, % Inhibition refers to the change of the read-out against control, counted positive when it falls.
